{"source": "paper PMC3258025", "about": "(Molecular Cancer Therapeutics, 2010)", "system": "HEK-EV cells", "assay": "MTT cytotoxicity assay in empty vector-transfected HEK293 cells", "assay_type": "cell-based, human", "settings": "disopyramide 150 μmol/L or cimetidine 1.5 mmol/L; P < 0.05"}
{"smiles": "CN/C(=N/CCSCc1nc[nH]c1C)NC#N", "note": "[cimetidine]", "values": [{"measurement": "Effect of OCT inhibitor on picoplatin IC50 in HEK-EV cells", "value": "small effect"}]}
{"smiles": "CC(C)N(CCC(C(N)=O)(c1ccccc1)c1ccccn1)C(C)C", "note": "(centres unmarked) [disopyramide]", "values": [{"measurement": "Effect of OCT inhibitor on picoplatin IC50 in HEK-EV cells", "value": "small effect"}]}
